T1: high-affinity hIL-2 receptor (IL-2Rαβγ) (human, UniProt P01589 22-272; P14784 27-551; P31785 23-369)
T1 sequence 1: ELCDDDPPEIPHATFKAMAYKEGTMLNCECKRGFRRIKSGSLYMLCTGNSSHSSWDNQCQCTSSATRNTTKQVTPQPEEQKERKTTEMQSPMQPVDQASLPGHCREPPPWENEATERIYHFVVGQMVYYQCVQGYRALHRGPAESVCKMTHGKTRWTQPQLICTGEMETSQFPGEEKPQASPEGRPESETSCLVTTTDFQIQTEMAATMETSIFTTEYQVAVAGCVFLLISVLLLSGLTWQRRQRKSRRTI
T1 sequence 2: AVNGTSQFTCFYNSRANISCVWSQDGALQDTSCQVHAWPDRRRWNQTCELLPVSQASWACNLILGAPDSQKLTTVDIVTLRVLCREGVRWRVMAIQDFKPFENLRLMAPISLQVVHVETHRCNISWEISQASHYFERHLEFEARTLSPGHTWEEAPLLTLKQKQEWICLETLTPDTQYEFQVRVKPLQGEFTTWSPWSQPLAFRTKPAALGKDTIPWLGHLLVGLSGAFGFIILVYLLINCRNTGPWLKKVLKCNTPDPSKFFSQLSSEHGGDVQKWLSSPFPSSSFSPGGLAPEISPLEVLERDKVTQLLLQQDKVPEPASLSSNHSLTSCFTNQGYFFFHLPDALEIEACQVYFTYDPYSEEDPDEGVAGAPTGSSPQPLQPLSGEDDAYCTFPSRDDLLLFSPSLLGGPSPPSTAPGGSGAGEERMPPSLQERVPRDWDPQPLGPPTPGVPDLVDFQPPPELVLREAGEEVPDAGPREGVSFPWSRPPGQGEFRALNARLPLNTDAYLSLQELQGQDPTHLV
T1 sequence 3: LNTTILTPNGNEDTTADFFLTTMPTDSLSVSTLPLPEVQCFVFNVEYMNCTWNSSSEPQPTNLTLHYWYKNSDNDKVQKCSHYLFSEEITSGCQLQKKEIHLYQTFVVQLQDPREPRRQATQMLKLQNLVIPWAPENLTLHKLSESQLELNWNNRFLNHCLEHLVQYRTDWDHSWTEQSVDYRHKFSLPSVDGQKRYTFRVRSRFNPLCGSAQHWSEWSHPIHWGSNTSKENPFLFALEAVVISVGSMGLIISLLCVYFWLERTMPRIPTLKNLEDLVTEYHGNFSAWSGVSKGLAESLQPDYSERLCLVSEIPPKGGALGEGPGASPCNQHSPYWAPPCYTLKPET

T2: high-affinity hIL-2 receptor (IL-2Rαβγ) on NK-92 cells (human, UniProt P01589 22-272; P14784 27-551; P31785 23-369)
T2 sequence 1: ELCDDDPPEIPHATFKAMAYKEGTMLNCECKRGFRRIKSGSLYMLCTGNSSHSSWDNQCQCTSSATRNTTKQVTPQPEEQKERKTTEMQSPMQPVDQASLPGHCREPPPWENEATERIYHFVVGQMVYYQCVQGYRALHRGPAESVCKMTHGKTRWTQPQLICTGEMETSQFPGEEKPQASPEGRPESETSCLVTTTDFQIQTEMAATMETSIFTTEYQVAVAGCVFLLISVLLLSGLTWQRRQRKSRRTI
T2 sequence 2: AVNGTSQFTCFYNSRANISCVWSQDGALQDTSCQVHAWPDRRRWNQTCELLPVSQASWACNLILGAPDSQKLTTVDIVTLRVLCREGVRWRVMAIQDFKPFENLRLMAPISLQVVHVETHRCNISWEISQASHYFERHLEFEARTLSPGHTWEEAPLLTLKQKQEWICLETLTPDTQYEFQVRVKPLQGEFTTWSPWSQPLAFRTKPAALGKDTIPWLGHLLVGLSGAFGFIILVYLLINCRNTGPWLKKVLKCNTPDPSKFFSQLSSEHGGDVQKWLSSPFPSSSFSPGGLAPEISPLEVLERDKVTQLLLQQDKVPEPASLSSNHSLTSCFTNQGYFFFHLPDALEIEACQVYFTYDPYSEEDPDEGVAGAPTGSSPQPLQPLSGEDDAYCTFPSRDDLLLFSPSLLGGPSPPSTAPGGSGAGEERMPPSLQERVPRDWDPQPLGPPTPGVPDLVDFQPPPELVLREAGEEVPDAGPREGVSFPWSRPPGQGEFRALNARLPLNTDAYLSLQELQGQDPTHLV
T2 sequence 3: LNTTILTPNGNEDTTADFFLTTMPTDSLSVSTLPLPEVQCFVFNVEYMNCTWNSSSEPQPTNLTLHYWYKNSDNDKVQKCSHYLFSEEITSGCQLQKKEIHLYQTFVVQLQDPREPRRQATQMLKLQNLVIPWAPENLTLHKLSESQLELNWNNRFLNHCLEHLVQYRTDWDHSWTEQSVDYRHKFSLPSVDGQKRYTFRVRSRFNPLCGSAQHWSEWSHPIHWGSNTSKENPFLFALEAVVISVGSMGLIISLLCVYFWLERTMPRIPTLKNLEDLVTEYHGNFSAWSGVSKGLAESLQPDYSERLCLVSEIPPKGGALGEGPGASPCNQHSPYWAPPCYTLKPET

T3: intermediate-affinity hIL-2 receptor complex (IL-2Rβγ) on TF1+IL-2Rβ cells (human, UniProt P14784 27-551; P31785 23-369)
T3 sequence 1: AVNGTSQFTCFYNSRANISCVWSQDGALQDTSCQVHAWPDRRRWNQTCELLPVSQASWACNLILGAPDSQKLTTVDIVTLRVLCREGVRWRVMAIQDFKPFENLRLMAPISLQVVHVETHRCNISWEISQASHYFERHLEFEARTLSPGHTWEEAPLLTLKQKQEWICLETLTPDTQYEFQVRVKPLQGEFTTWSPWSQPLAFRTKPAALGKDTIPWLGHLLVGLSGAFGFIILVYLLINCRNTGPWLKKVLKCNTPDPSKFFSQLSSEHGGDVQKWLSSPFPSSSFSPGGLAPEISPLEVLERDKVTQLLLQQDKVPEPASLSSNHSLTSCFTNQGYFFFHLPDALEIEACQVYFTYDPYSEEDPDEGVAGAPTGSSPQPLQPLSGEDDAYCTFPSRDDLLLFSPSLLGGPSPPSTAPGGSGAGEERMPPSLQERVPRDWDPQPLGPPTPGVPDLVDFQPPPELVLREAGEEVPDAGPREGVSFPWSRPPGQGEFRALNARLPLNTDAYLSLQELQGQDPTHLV
T3 sequence 2: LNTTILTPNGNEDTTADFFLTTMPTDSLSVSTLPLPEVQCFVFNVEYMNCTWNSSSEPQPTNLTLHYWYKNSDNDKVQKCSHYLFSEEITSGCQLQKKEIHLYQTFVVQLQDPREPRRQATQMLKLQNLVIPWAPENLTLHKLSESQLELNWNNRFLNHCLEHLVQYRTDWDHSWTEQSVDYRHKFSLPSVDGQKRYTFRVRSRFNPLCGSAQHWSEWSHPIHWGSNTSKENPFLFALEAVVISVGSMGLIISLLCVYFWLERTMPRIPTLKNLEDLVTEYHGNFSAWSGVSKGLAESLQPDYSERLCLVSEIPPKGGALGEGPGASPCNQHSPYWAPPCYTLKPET


Key:
Assay in all cases: cell-based or functional assay
[1] = molecular target: T1, high-affinity hIL-2 receptor (IL-2Rαβγ)
[2] = molecular target: T2, high-affinity hIL-2 receptor (IL-2Rαβγ) …
[3] = molecular target: T3, intermediate-affinity hIL-2 receptor …

Row | Agonistic Activity (NK-92), pSTAT5 titration [1] [%] | Fold change from rhIL-2 (NK-92), pSTAT5 titration [1] [fold] | Fold change from rhIL-2 (NK-92) [2] [fold] | Fold change from rhIL-2 (TF1 + IL-2Rβ) [3] [fold] | Binder
1 | 90 | > 10000 |  |  | 1H3-hIgG1-L6-hIL-2 (T3A/D20A/R38E/C125A) (other) heavy: EVQLVESGGGLVQPGRSLKLSCAVSGFTFSDYAMAWVRQAPKKGLEWVATISYDGSRTYYRDSVKGRFTISRDNAKITLYLQMDSLRSEDTATYYCARHGSGYFDYWGQGVMVTVSS[not shown - human IgG1 constant region]SGGGGSAPASSSTKKTQLQLEHLLLALQMILNGINNYKNPKLTEMLTFKFYMPKKATELKHLQCLEEELKPLEEVLNLAQSKNFHLRPRDLISNINVIVLELKGSETTFMCEYADETATIVEFLNRWITFAQSIISTLT light: DTVLTQSPALAVSPGERVTISCRASESVRTGVHWYQQKPGQQPKLLIYGASNLESGVPARFSGSGSGTDFTLTIDPVEADDTATYFCQQSWNDPFTFGSGTKLEIKRTVAAPSVFIFPPSDEQLKSGTASVVCLLNNFYPREAKVQWKVDNALQSGNSQESVTEQDSKDSTYSLSSTLTLSKADYEKHKVYACEVTHQGLSSPVTKSFNRGEC
2 |  |  | 631 | 46 | hCD25-L20-hIL-2 Nterm light chain L6 fusion (other) heavy: EVQLVESGGGLVQPGRSLKLSCAVSGFTFSDYAMAWVRQAPKKGLEWVATISYDGSRTYYRDSVKGRFTISRDNAKITLYLQMDSLRSEDTATYYCARHGSGYFDYWGQGVMVTVSS[not shown - human IgG1 constant region] light: ELCDDDPPEIPHATFKAMAYKEGTMLNCECKRGFRRIKSGSLYMLCTGNSSHSSWDNQCQCTSSATRNTTKQVTPQPEEQKERKTTEMQSPMQPVDQASLPGHCREPPPWENEATERIYHFVVGQMVYYQCVQGYRALHRGPAESVCKMTHGKTRWTQPQLICTSGGGGSGGGGSGGGGSGGGS[not shown - about 150 residues]SGGGGSDTVLTQSPALAVSPGERVTISCRASESVRTGVHWYQQKPGQQPKLLIYGASNLESGVPARFSGSGSGTDFTLTIDPVEADDTATYFCQQSWNDPFTFGSGTKLEIKRTVAAPSVFIFPPSDEQLKSGTASVVCLLNNFYPREAKVQWKVDNALQSGNSQESVTEQDSKDSTYSLSSTLTLSKADYEKHKVYACEVTHQGLSSPVTKSFNRGEC
3 |  |  | 138 | ~247 | hCD25-L20-hIL-2 Cterm light chain L6 fusion (other) heavy: EVQLVESGGGLVQPGRSLKLSCAVSGFTFSDYAMAWVRQAPKKGLEWVATISYDGSRTYYRDSVKGRFTISRDNAKITLYLQMDSLRSEDTATYYCARHGSGYFDYWGQGVMVTVSS[not shown - human IgG1 constant region] light: DTVLTQSPALAVSPGERVTISCRASESVRTGVHWYQQKPGQQPKLLIYGASNLESGVPARFSGSGSGTDFTLTIDPVEADDTATYFCQQSWNDPFTFGSGTKLEIKRTVAAPSVFIFPPSDEQLKSGTASVVCLLNNFYPREAKVQWKVDNALQSGNSQESVTEQDSKDSTYSLSSTLTLSKADYEKHKVYACEVTHQGLSSPVTKSFNRGECSGGGGSELCDDDPPEIPHATFKAMAYKEGTMLNCECKRGFRRIKSGSLYMLCTGNSSHSSWDNQCQCTSSATRNTTKQVTPQPEEQKERKTTEMQSPMQPVDQASLPGHCREPPPWENEATERIYHFVVGQMVYYQCVQGYRALHRGPAESVCKMTHGKTRWTQPQLICTSGGGGSGGGGSGGGGSGGGS[not shown - about 150 residues]
4 |  |  | 45 | ~174 | hCD25-L20-hIL-2 Cterm light chain df (other) heavy: EVQLVESGGGLVQPGRSLKLSCAVSGFTFSDYAMAWVRQAPKKGLEWVATISYDGSRTYYRDSVKGRFTISRDNAKITLYLQMDSLRSEDTATYYCARHGSGYFDYWGQGVMVTVSS[not shown - human IgG1 constant region] light: DTVLTQSPALAVSPGERVTISCRASESVRTGVHWYQQKPGQQPKLLIYGASNLESGVPARFSGSGSGTDFTLTIDPVEADDTATYFCQQSWNDPFTFGSGTKLEIKRTVAAPSVFIFPPSDEQLKSGTASVVCLLNNFYPREAKVQWKVDNALQSGNSQESVTEQDSKDSTYSLSSTLTLSKADYEKHKVYACEVTHQGLSSPVTKSFNRGECELCDDDPPEIPHATFKAMAYKEGTMLNCECKRGFRRIKSGSLYMLCTGNSSHSSWDNQCQCTSSATRNTTKQVTPQPEEQKERKTTEMQSPMQPVDQASLPGHCREPPPWENEATERIYHFVVGQMVYYQCVQGYRALHRGPAESVCKMTHGKTRWTQPQLICTSGGGGSGGGGSGGGGSGGGS[not shown - about 150 residues]
